# Data taken from PubChem BioAssay AID1030 (National Center for Advancing Translational Sciences (NCATS), 2008).
# “And” between values parts separate entries of the source, which are not always exact repeats. Identical values can stand only once. In all, about 220,000 compounds went through this assay and about 16,000 (7.3%) were called active. Inconclusive results, whose numbers are uncertain, are shown with a selection of clear calls. Calls come from the whole dose curve; as a rule, active = well fitted inhibition curve with a large enough effect (not every such curve was filed as active); inconclusive = small, poorly fitted or top-dose-only effect, or another doubt; inactive = no such curve, though single readings can be large or run the other way. Where the call is inconclusive, the potency comes from a doubtful curve fit.
# Molecular target: Aldehyde dehydrogenase 1A1 (Homo sapiens) (UniProt P00352)
# Experiment: qHTS Assay for Inhibitors of Aldehyde Dehydrogenase 1 (ALDH1A1);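 for activity, negative = inhibition: plate controls were no enzyme wells and a reference inhibitor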
# Conditions: Purified ALDH1A1, NADH fluorescence, propionaldehyde substrate; series mostly up to 75.3 µM
# Potency is the fitted concentration of half-maximal effect; tags give direction and shape of the fitted curve.
# UniProt P00352, sequence (P00352 whole entry, looked up): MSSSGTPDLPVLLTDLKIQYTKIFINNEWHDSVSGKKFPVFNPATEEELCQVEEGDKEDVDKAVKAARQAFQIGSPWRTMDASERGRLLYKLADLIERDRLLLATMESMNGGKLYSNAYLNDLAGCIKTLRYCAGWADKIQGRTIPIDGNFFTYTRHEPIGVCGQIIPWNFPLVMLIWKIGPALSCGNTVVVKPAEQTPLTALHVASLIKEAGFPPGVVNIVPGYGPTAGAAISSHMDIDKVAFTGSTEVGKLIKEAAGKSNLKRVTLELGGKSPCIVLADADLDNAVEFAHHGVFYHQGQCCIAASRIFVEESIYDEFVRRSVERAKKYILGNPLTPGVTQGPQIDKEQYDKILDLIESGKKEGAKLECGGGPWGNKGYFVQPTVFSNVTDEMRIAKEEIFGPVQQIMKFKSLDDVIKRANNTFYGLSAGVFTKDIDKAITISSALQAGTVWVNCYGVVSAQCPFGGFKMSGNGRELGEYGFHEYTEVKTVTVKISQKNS
Structure (SMILES),Potency,"activity, negative = inhibition"
CCOc1ccc(NC(=S)C(C#N)=C2N(C)c3ccccc3N2C)cc1,"inconclusive: 37.7 µM [inhibitor, single point]",
CC(C)/C=N/NC(=O)c1cccc(N2CCCC2=O)c1,"inconclusive: 39.8 µM [inhibitor, single point]",
COc1cccc(C(=O)COc2cccc(NC(=O)c3ccco3)c2)c1,"inconclusive: 39.8 µM [inhibitor, single point]",
Cc1ccc(CNC(=O)C2(CC(C)C)C=CCN2C(=O)c2ccccc2)o1 (stereo not drawn),inactive,
Cn1nc(C(=O)Nc2nc3ccccc3[nH]2)c2ccccc2c1=O,inactive,
COc1cccc(Cn2c(=S)[nH]c3ccc(N4CCOCC4)cc3c2=O)c1,"inconclusive: 25.1 µM [inhibitor, partial curve]",
Cc1ccc(Cn2nnnc2CN2CCC(O)(c3cccnc3)CC2)cc1,"inconclusive: 39.8 µM [inhibitor, single point]",
Cc1ccc(N(C)C(=O)N2CCN(c3ccccn3)CC2)cc1,"inconclusive: 39.8 µM [inhibitor, single point]",
Cc1ccc(-c2nn(-c3ccccc3)cc2/C=C/C(=O)Nc2cccc(S(N)(=O)=O)c2)cc1,"inconclusive: 28.2 µM [inhibitor, partial curve]",
Cc1cc(=O)oc2c(OS(C)(=O)=O)c(OS(C)(=O)=O)ccc12,,inactive: -10.4% [at 13.5 µM]
Cc1c(C(=O)CN2CCOCC2)[nH]c2ccccc12,active: 15 µM,
CCC(C)NC(=O)CSc1nc2ccccc2c(=O)n1Cc1ccc(OC)cc1 (stereo not drawn),"inconclusive: 15.8 µM [inhibitor, partial curve]",
O=c1c2ccccc2nc(-c2ccco2)n1/N=C/c1ccco1,"inconclusive: 28.2 µM [inhibitor, single point]",
O=C(CN1CCN(S(=O)(=O)c2ccc(Cl)cc2)CC1)Nc1ccc(N2CCOCC2)cc1,inactive,
Cc1ccc2nc(NC(=O)c3ccc(Cn4cc(Cl)cn4)o3)sc2c1,"inconclusive: 39.8 µM [inhibitor, single point]",
NC(=O)C1(N2CCCCC2)CCN(Cc2ccc(F)cc2)CC1,"inconclusive: 39.8 µM [inhibitor, single point]",
O=C1CSC(c2ccc(Cl)cc2Cl)N1c1ccccn1 (stereo not drawn),"inconclusive: 28.2 µM [inhibitor, single point]",
O=C(NCCCN1CCN(c2cccc(Cl)c2)CC1)c1ccc(N2CCCC2=O)cc1,"inconclusive: 28.2 µM [inhibitor, partial curve]",
O=c1ccc2cc(O)c(O)cc2o1,"inconclusive: 10 µM [inhibitor, partial curve] and inconclusive: 31.6 µM [inhibitor, partial curve]",
C=C1C(=O)[C@@]23[C@H](O)C[C@@H]4C(C)(C)CC[C@H](O)[C@]4(C)[C@@H]2C[C@H](O)[C@@H]1[C@H]3O,inactive,
Cn1c(=NC(=O)c2ccco2)sc2ccccc21,"inconclusive: 39.8 µM [inhibitor, single point]",
O=C(Sc1nnc(-c2ccccc2)o1)N1c2ccccc2Sc2ccccc21,active: 22.4 µM,

Structure (SMILES),Potency,"activity, negative = inhibition"
O=[N+]([O-])c1ccc(N/N=C/c2cn(-c3ccccc3)nc2-c2ccccc2)cc1,"inconclusive: 20 µM [inhibitor, partial curve]",
O=C1NCCN1Cc1ccccc1F,"inconclusive: 39.8 µM [inhibitor, single point]",
COc1c(C)cc(Br)cc1C(=O)NC(=S)Nc1ccc(Cl)c(C(=O)O)c1,"inconclusive: 39.8 µM [inhibitor, single point]",
COc1ccc(NC(=O)CN2CCOCC2)cc1,"inconclusive: 44.7 µM [inhibitor, single point]",
COc1ccc(-n2c(N)c(C(=O)NCc3ccco3)sc2=S)cc1,"inconclusive: 25.1 µM [inhibitor, partial curve]",
Cc1ccc(N(CC(=O)Nc2ccc3c(c2)OCCO3)S(=O)(=O)c2c(C)n[nH]c2C)cc1,"inconclusive: 39.8 µM [inhibitor, single point]",
O=c1c(O)c(-c2cccc(O)c2)oc2ccccc12,"inconclusive: 39.8 µM [inhibitor, single point]",
Cc1cc(NC(=O)c2ccccc2NS(=O)(=O)c2c(C)c(C)cc(C)c2C)no1,"inconclusive: 14.1 µM [inhibitor, partial curve]",
Cc1nn(C)c(C)c1CS(=O)(=O)c1ccccc1,"inconclusive: 28.2 µM [inhibitor, single point]",
O=c1ccnc(S/C=C/c2ccccc2)[nH]1,"inconclusive: 39.8 µM [inhibitor, single point]",
Cc1cc(-c2n[nH]c(=S)n2/N=C/c2cccc(O)c2)n[nH]1,inactive,
Cc1cccc(NC(=S)N(C)C2CCCCC2)c1,inactive,
N#CCSc1nnc(-c2sc3ccccc3c2Cl)o1,"inconclusive: 25.1 µM [inhibitor, single point]",
COc1cc(OC)cc(C(=O)N[C@H](C(=O)Nc2nc(-c3ccc(F)c(F)c3)cs2)C(C)C)c1,"inconclusive: 37.7 µM [inhibitor, single point]",
CC1=C(C(=O)OCC2CCCO2)C(c2ccsc2)C2=C(CCCC2=O)N1 (stereo not drawn),"inconclusive: 39.8 µM [inhibitor, single point]",
Cc1ccc(-c2cc(C)nc3ncnn23)cc1,"inconclusive: 39.8 µM [inhibitor, single point]",
CN(C)S(=O)(=O)c1cccc(C(=O)C2=C3SC=C(c4ccccc4)N3CC2)c1,active: 2 µM,
O=C(COc1ccc(C(=S)N2CCOCC2)cc1)Nc1ccccc1C(F)(F)F,"inconclusive: 39.8 µM [inhibitor, single point]",
COC(=O)c1ccc(Sc2ccccc2NS(=O)(=O)c2ccc(C)cc2)nc1,active: 28.2 µM,
O=C(Cc1ccccc1)NCc1ccc(-n2cccc2)cc1,inactive,
Cc1cc(C(=O)N/N=C/c2ccc(OCc3ccccc3)cc2)c(C)o1,"inconclusive: 39.8 µM [inhibitor, single point]",
